Test results as given in paper PMC10668032.
The other results are listed elsewhere or left out. At the low end of the ranking, values are background and their order means little.

Each sequence was assayed against SIX1-Q177R homeodomain (UniProt Q15475) (assay: universal protein binding microarray). Settings: Universal all-10-mer PBM (8x60K, AMADID 030236), 300 nM GST-tagged protein, Alexa Fluor 488 anti-GST; buffer, salt, pH and temperature not stated; high values mean tight binding; most listed sequences are background and not binding sites; double strand, one strand shown.

Row | Sequence | binding signal
1 | GTCACCAA | 0.133 E-score
2 | CTAAGATA | -0.0574 E-score
3 | CGGAAACA | 0.136 E-score
4 | GAGTATCA | 0.228 E-score
5 | CGCTAGGA | -0.0248 E-score
6 | GAAGGTTA | -0.132 E-score
7 | CAAGCTGA | -0.191 E-score
8 | ATGCTAGG | -0.0658 E-score
9 | AGTAACGC | -0.104 E-score
10 | AGGGGTCG | 0.258 E-score
11 | GAAACCAC | 0.0452 E-score
12 | CGTTACCC | 0.207 E-score
13 | CTAAGGGC | -0.171 E-score
14 | GAGTGATC | 0.0711 E-score
15 | AGCAGATA | -0.0353 E-score
16 | GAACCGAA | -0.118 E-score
17 | AATGGCAT | -0.33 E-score
18 | GCCACCAA | -0.27 E-score
19 | ACCTCTGC | -0.0341 E-score
20 | AGCAAACA | 0.0665 E-score
21 | AAAAGCAA | -0.247 E-score
22 | ACCGTTCG | 0.0748 E-score
23 | CATGGTCC | -0.125 E-score
24 | TAAGCCCA | -0.162 E-score
25 | GTTCGCGA | -0.0734 E-score

Row | Sequence | binding signal
26 | TCTGTGAA | 0.0431 E-score
27 | ACATTTGA | -0.0673 E-score
28 | AACTACTA | -0.18 E-score
29 | GTAGATCA | 0.00254 E-score
30 | AAGTGAAG | -0.194 E-score
31 | CTGGGGGC | -0.153 E-score
32 | ATCGAAGG | -0.176 E-score
33 | AAGGTGCA | 0.222 E-score
34 | AGAAACAT | -0.231 E-score
35 | GAATGGCA | -0.244 E-score
36 | ACAGTTAG | -0.223 E-score
37 | GTAAGGAA | -0.155 E-score
38 | CTGCTAAA | -0.133 E-score
39 | AGTACGTA | -0.117 E-score
40 | ACTAGTTA | 0.0365 E-score
41 | AAGTCCCA | -0.237 E-score
42 | GGCTACTA | 0.0205 E-score
43 | AAAGCCCC | -0.176 E-score
44 | CCGGACCA | 0.00515 E-score
45 | CAAATTGA | -0.185 E-score
46 | GTTATACA | 0.171 E-score
47 | CAAGGCAG | -0.0349 E-score
48 | ACTACCGA | 0.00587 E-score
49 | AGGCTCAG | -0.119 E-score
50 | ATTTTACC | 0.0215 E-score

Row | Sequence | binding signal
51 | GCTCGTTA | 0.0488 E-score
52 | CGCCGTAG | -0.111 E-score
53 | TCCTACCA | -0.102 E-score
54 | GGAATTCA | -0.175 E-score
55 | TACAGTGA | -0.0933 E-score
56 | GTTCTTGA | 0.0137 E-score
57 | ATCTCAAG | -0.166 E-score
58 | TCAGTACA | 0.154 E-score
59 | ACCAGCCT | -0.147 E-score
60 | CCCAAATC | -0.207 E-score
61 | CCCGGCAG | -0.0722 E-score
62 | CCCTCAGG | -0.0716 E-score
63 | AGATCAGG | 0.0734 E-score
64 | TCAACTGA | -0.0594 E-score
65 | ACAGTAGG | -0.0405 E-score
66 | CTGTGCTC | -0.0693 E-score
67 | ACATCTAA | -0.126 E-score
68 | AGACCAAT | -0.214 E-score
69 | CTACGCGA | -0.00166 E-score
70 | AGGTTCCC | -0.199 E-score
71 | CTAAGTCA | -0.212 E-score
72 | GCTCGACC | -0.0628 E-score
73 | AACTATTA | -0.33 E-score
74 | GACTGAAC | -0.0536 E-score
75 | CGCGCAGA | 0.00481 E-score

Row | Sequence | binding signal
76 | AAAGGTAC | -0.0261 E-score
77 | GGGCGAAC | -0.0435 E-score
78 | GCATAAGC | -0.106 E-score
79 | ATTTTCGC | -0.161 E-score
80 | ATAACGCG | 0.0979 E-score
81 | CAATCTAG | -0.00233 E-score
82 | AGCACAAC | -0.00405 E-score
83 | TCATTTCA | -0.0579 E-score
84 | GCTTCGAA | -0.108 E-score
85 | CCGATAGG | 0.0353 E-score
86 | GGTCGAAA | -0.05 E-score
87 | AGGCTTAA | -0.144 E-score
88 | CTGATGAA | -0.138 E-score
89 | CAATCCCA | -0.163 E-score
90 | ATGGTCCC | -0.252 E-score
91 | CAATTCAG | -0.154 E-score
92 | AGCATGCA | -0.0221 E-score
93 | TCCAGCGA | -0.118 E-score
94 | GGACATAA | -0.07 E-score
95 | AAAATTTT | -0.159 E-score
96 | ACAAAAAG | -0.171 E-score
97 | CTTGACGA | -0.172 E-score
98 | AGCGTCAG | -0.0163 E-score
99 | ACTTGTGC | -0.18 E-score
100 | CCATCTAG | -0.0296 E-score

Row | Sequence | binding signal
101 | CAAGCCTC | -0.145 E-score
102 | AAGCACTA | 0.102 E-score
103 | CAGTATGA | -0.0767 E-score
104 | CCCAGGGA | 0.0355 E-score
105 | AGTCAGTC | -0.216 E-score
106 | ACTAAAAT | -0.304 E-score
107 | GCAGTCGA | -0.136 E-score
108 | CCATCCCC | -0.00104 E-score
109 | GCTAGGCC | -0.185 E-score
110 | CACGCGTG | 0.317 E-score
111 | AAGTTCAT | -0.232 E-score
112 | GGCCCGGA | -0.043 E-score
113 | ATTGTGAA | -0.0287 E-score
114 | AGATTGGC | -0.169 E-score
115 | AGTCTAAG | -0.00597 E-score
116 | ACTTCGGA | -0.000585 E-score
117 | ACTGCGAC | -0.0806 E-score
118 | TACGATCA | -0.198 E-score
119 | AGGACCAA | -0.0709 E-score
120 | ACGCGTAG | 0.0528 E-score
121 | GGCTAACC | 0.0192 E-score
122 | GAATTAGA | -0.17 E-score
123 | ATAAAACA | 0.0261 E-score
124 | CTTCTTAA | -0.133 E-score
125 | AACTTACT | -0.105 E-score

Row | Sequence | binding signal
126 | ATGCGAGA | -0.127 E-score
127 | GAATCCAC | -0.02 E-score
128 | GCGTTTCA | -0.099 E-score
129 | CCCTGGGA | 0.0429 E-score
130 | ATACTCGC | 0.0254 E-score
131 | CAATTCGG | -0.0704 E-score
132 | CTACAAAC | -0.0143 E-score
133 | AACGTTTG | -0.0579 E-score
134 | TCCAACAA | 0.0435 E-score
135 | CGATAATC | -0.158 E-score
136 | TAACTCTA | -0.0647 E-score
137 | ACTGCATA | 0.214 E-score
138 | CCCCTTTC | -0.015 E-score
139 | CTAGACGC | 0.0629 E-score
140 | AAAACGTT | -0.391 E-score
141 | AAAAGTCC | 0.0626 E-score
142 | TCTCTACA | 0.045 E-score
143 | GGATTGTA | -0.246 E-score
144 | GGATTACA | 0.134 E-score
145 | AAGGACAC | 0.405 E-score
146 | TTACGGAA | 0.00473 E-score
147 | CTACTACA | 0.134 E-score
148 | CGCTGCCC | 0.141 E-score
149 | ATGCGCGC | -0.0386 E-score
150 | AATTGGGT | 0.0537 E-score

Row | Sequence | binding signal
151 | GGATCAGA | 0.17 E-score
152 | GCATATCC | -0.119 E-score
153 | TACACATA | 0.209 E-score
154 | ACCCGGAT | 0.301 E-score
155 | CTCGAGCC | 0.1 E-score
156 | GAGATAAA | 0.00967 E-score
157 | CGATGGAC | -0.12 E-score
158 | AAGAGAAC | 0.0147 E-score
159 | AACGTCAT | -0.22 E-score
160 | ACGAGCCA | 0.0039 E-score
161 | TACCAGAA | 0.0104 E-score
162 | GCCCAACA | 0.313 E-score
163 | ACTACTTC | 0.0147 E-score
164 | AATCTATC | -0.231 E-score
165 | AGGGATGA | -0.123 E-score
166 | TACCTAGA | 0.0914 E-score
167 | ATCGCCCA | -0.164 E-score
168 | ATATCTTA | -0.0635 E-score
169 | AGATCATG | -0.134 E-score
170 | AAGATCCG | -0.101 E-score
171 | GGGAGATA | -0.143 E-score
172 | AGGATTGC | -0.287 E-score
